Measured values as given in PubChem BioAssay AID624296 (National Center for Advancing Translational Sciences (NCATS), 2012).
In all, about 350,000 compounds went through this assay and about 9,900 (2.8%) were called active. Inconclusive means that the source gave no clear call. Such entries were picked first, then a sample of the others. Calls follow the shape of the dose curve; as a rule, active = well fitted activation curve with a large enough effect; inconclusive = small, poorly fitted or top-dose-only effect; inactive = no such curve, though single readings can be large or run the other way. Potencies of inconclusive entries are left out as doubtful fits.
Potency is read from the fitted curve at half-maximal effect; tags tell the direction and shape of the fitted curve.

Test: A quantitative high throughput screen for small molecules that induce DNA re-replication in MCF 10a normal breast cells. Also: nearly all actives have a fitted effect of over 50% in size. As to activity, positive = re-replication: % of control where 0% means no effect.
Conditions: MCF 10A DNA re-replication, Hoechst nuclear intensity, 48 h; activity, positive = re-replication: at 46.1 µM (top of the series)
In the case of `COc1ccc(C(=O)N/N=C(/C)c2ccc(N3CCCCC3)cc2)cc1`, the Potency is reported as “inactive”.
With `Oc1ccc(-c2nccc(-c3ccc(Cl)cc3)n2)cc1` the Potency was inconclusive [activator, single point].
For `C=CCn1c(SCC(=O)OCC)nc(C(F)(F)F)cc1=O`, the Potency was “inactive”.
For `COc1cccc(-c2nn(C)c3sc(C(=O)NCCCN(C)Cc4ccccc4)cc23)c1`, the Potency was inconclusive [activator, partial curve, poor fit].
With `Cc1cccn2c(=O)c3cc(C(=O)NCCN4CCOCC4)c(=N)n(CCCN4CCOCC4)c3nc12` the activity, positive = re-replication was inconclusive: 209% [activator].
In the case of `O=C1CN(C(=O)COC(=O)CCS(=O)(=O)c2ccccc2Cl)c2ccccc2N1`, the Potency is reported as inconclusive [activator, single point].
In the case of `O=C(CCc1ccc(Oc2cc([N+](=O)[O-])cc([N+](=O)[O-])c2)cc1)NC1CCCC1`, the Potency is reported as “inactive”.
For `CC(C)(C)/C(O)=C(/C#N)c1nc2ccccc2[nH]1`, the Potency was inconclusive [activator, partial curve, poor fit].
In the case of `CC(C)(C)c1nnc(NC(=O)NS(=O)(=O)c2ccccc2)s1`, the Potency is reported as inconclusive [activator, partial curve, poor fit].
For `CCCCOC(=O)c1cccnc1`, the Potency was “inactive”.
For `O=C(/C=C/c1ccc(Cl)cc1Cl)n1cccn1`, the Potency was inconclusive [activator, partial curve, poor fit].
For `CCCCN(CCCC)C(=S)N/N=C/c1c(C)[nH]n(-c2ccccc2)c1=O`, the Potency was inconclusive [activator, single point].
For `COc1ccc(NS(=O)(=O)c2ccc(O)c(NC(=O)c3ccc(S(=O)(=O)N4CCCCCC4)cc3)c2)cc1`, the Potency was inconclusive [activator, single point].
For `CCOc1ccc2[nH]c3c(NCCC(C)C)ncnc3c2c1`, the Potency was active: 11.6 µM.
For `C=CCn1c(-c2ccncc2)n[nH]c1=S`, the Potency was inconclusive [activator, single point].
In the case of `COc1ccc(C2=Nn3c(nnc3-c3ccncc3)SC2)cc1OC`, the Potency is reported as inconclusive [activator, partial curve, poor fit].
In the case of `CCN(CC)S(=O)(=O)c1ccc(Cl)c(NC(=O)COc2ccc3c(C)cc(=O)oc3c2)c1`, the Potency is reported as inconclusive [activator, single point].
With `CS(=O)(=O)N(CC(=O)N1CCCC1)c1cccc(F)c1` the activity, positive = re-replication was inconclusive: 98.4% [activator].
For `Cc1nc(Nc2ccc3c(c2)OCCO3)c2oc3ccccc3c2n1`, the Potency was inconclusive [activator, single point].
For `CN(C)c1ccc(C(=O)Nc2nnc(C3=COCCO3)o2)cc1`, the Potency was “inactive”.
In the case of `Cc1ccc(C(=O)Nc2cccc(C(O)c3ccccc3)c2)cc1` (stereo unspecified), the Potency is reported as “inactive”.
With `CCOC(=O)c1c(C)n(C)c2cc(-c3ccc(C)cc3)c(O)cc12` the Potency was inconclusive [activator, partial curve, poor fit].
With `CCC(=O)N1CCc2cc(S(=O)(=O)CCC(=O)Nc3ccc(C(C)=O)cc3)ccc21` the Potency was inconclusive [activator, single point].
With `CSc1ncc2c(=O)[nH]c(-c3ccccc3)nc2n1` the Potency was “inactive”.
With `Cc1ccc(OCCSc2cc(C)nc(N)n2)cc1` the Potency was inconclusive [activator, partial curve, poor fit].
For `Cc1cc(C)c(CN2CCN(CCCn3cnc(C(=O)Nc4ccc(C)c(C)c4)n3)CC2)c(C)c1`, the Potency was inconclusive [activator, single point].
With `Cc1cc(C)c2nc(N3CCCC(C(=O)NCCN4CCOCC4)C3)sc2c1` (stereo unspecified) the Potency was inconclusive [activator, single point].
In the case of `CCCCNC(=S)Nc1ccc2nc(N3CCN(CC)CC3)cc(C)c2c1`, the Potency is reported as inconclusive [activator, single point].
For `O=C1C2C3c4ccccc4C(c4ccccc43)C2c2nc3ccccc3n21` (stereo unspecified), the Potency was inconclusive [activator, partial curve, poor fit].
With `Cc1cc(C(=O)N/N=C/c2ccc(N(C)C)cc2)c2ccccc2n1` the Potency was active: 7.08 µM.
In the case of `O=C(CSc1nnc2scc(-c3ccccc3)n12)N1CCN(Cc2ccccc2)CC1`, the Potency is reported as “inactive”.
With `CN(C(=O)c1ccc(NC(=O)Cc2cccc(NC(=O)C3CCCN(C(=O)C4CCCC4)C3)c2)cc1)C1CCCC1` (stereo unspecified) the activity, positive = re-replication was inconclusive: 49% [activator].
For `Oc1c(/C=C/C=C/C=Nc2ccccc2)sc(=S)n1Cc1ccccc1`, the Potency was inconclusive [activator, partial curve, poor fit].
In the case of `COC(=O)c1ccccc1Sc1c(/C=N/OC(=O)c2ccccc2)c(C(F)(F)F)nn1C`, the Potency is reported as inconclusive [activator, partial curve, poor fit].
In the case of `CCCN1C2CCCC1CC(NC(=O)c1ccc(OC)cc1)C2` (stereo unspecified), the Potency is reported as inconclusive [activator, partial curve, poor fit].
In the case of `COc1ccc(-c2c[n+]3c(n2-c2ccccc2)SCC3)cc1`, the Potency is reported as “inactive”.
For `CCCc1ccc(C(=O)NNc2ccc(F)cc2)cc1`, the Potency was inconclusive [activator, single point].
In the case of `O=C1c2cccc3c(Cl)ccc(c23)C(=O)N1O`, the Potency is reported as “inactive”.
With `CCOc1ccc(C(C)NC(=O)C2CCCC2)cc1` (stereo unspecified) the Potency was “inactive”.
With `C=CCNC(=S)NNC(=O)COc1ccc(Cl)cc1Cl` the Potency was inconclusive [activator, full curve, poor fit].
With `CC(=O)Nc1cccc(OCc2c(F)cccc2Cl)c1` the Potency was “inactive”.
In the case of `CCCC1=C(C(=O)OCC)C(c2ccccc2OC)NC(=O)N1` (stereo unspecified), the Potency is reported as “inactive”.
In the case of `COc1ccc2[nH]c(=O)c(C(c3nnnn3C3CCCC3)N3CCN(Cc4ccc5c(c4)OCO5)CC3)cc2c1` (stereo unspecified), the Potency is reported as inconclusive [activator, single point].
For `Cc1ccc(C)c(NC(=O)CN2C(=O)c3ccccc3C2=O)c1`, the Potency was inconclusive [activator, single point].
With `CN(C)c1ccc(/C=C2\Oc3ccc(C#Cc4cccc(N)c4)cc3C2=O)cc1` the Potency was active: 4.61 µM.
In the case of `CCn1c(=NC(=O)CS(=O)(=O)c2ccc(C)cc2)sc2cccc(OC)c21`, the Potency is reported as inconclusive [activator, single point].
With `Cc1ccc(Nc2nc3c(c(=O)[nH]2)CCCC3)cc1` the Potency was “inactive”.
In the case of `CC(=O)Nc1ccc(N/C=C/C(=O)c2ccc(C)o2)cc1`, the Potency is reported as active: 23.1 µM.
In the case of `COc1ccccc1Nc1ccc([N+](=O)[O-])cc1N`, the Potency is reported as inconclusive [activator, single point].
In the case of `COc1ccc(CSC(=N)N)cc1[N+](=O)[O-]`, the Potency is reported as inconclusive [activator, single point].
With `C=CCn1c(C)cc(C(=O)COc2ccc(S(=O)(=O)N3CCCC3)cc2[N+](=O)[O-])c1C` the Potency was inconclusive [activator, single point].
In the case of `CCC1(O)CC(c2ccccc2)=NN1C(=O)c1ccccc1F` (stereo unspecified), the Potency is reported as “inactive”.
For `NC(=O)c1ccsc1NC(=O)COC(=O)c1c(F)cccc1Cl`, the Potency was inconclusive [activator, partial curve].
For `C=CCOC(=O)C1=C[C@@H](c2ccccc2)[C@H](CCCO)[C@@H](OCC)O1`, the Potency was inconclusive [activator, single point].
For `C=C1[C@@H](O)[C@H](CC(C)C)N(Cc2ccccc2Br)S1(=O)=O`, the Potency was inconclusive [activator, full curve, poor fit].
In the case of `CC(=O)c1c(OC(=O)c2ccco2)c2ccccc2n1C`, the Potency is reported as “inactive”.
For `O=[N+]([O-])c1ccc(Sc2nnnn2-c2ccccc2)c(Cl)c1`, the Potency was active: 4.11 µM.
In the case of `COc1cc(CNc2nc(C)c([N+](=O)[O-])c(C)c2C#N)cc(OC)c1`, the Potency is reported as “inactive”.
With `Cc1cccc(C)c1NC(=O)CSc1nc(COc2ccccc2)nc2ccccc12` the Potency was inconclusive [activator, single point].
In the case of `C/C(=N\Nc1nc2ccccc2s1)c1ccc(Br)s1`, the Potency is reported as inconclusive [activator, single point].
In the case of `CSc1ccc(CN2CCC(C(=O)NCc3ccc(C)cc3)CC2)cc1`, the Potency is reported as inconclusive [activator, single point].
In the case of `CN(C)CCCN(C(=O)c1ccco1)c1nc(-c2ccc(Cl)cc2)cs1`, the Potency is reported as “inactive”.
For `CSCCC(C(=O)O)N1C(=O)c2ccc(C(=O)O)cc2C1=O` (stereo unspecified), the Potency was inconclusive [activator, partial curve, poor fit].
With `CCC(c1nnnn1CCc1ccccc1)N(Cc1ccco1)Cc1cc2cc(C)cc(C)c2[nH]c1=O` (stereo unspecified) the Potency was inconclusive [activator, single point].
In the case of `Cn1c(=O)c2sccc2n(Cc2ccccc2)c1=O`, the Potency is reported as inconclusive [activator, single point].
For `Cc1[nH]c2ccc(F)cc2c1CCN(Cc1cccnc1)C(=S)Nc1ccccc1`, the Potency was inconclusive [activator, full curve, poor fit].
In the case of `COc1cc(/C=N/Nc2ncc(C(F)(F)F)cc2Cl)cc(OC)c1O`, the Potency is reported as “inactive”.
In the case of `Clc1ccc(-c2[nH]ncc2N=Nc2ccccc2)cc1`, the Potency is reported as inconclusive [activator, single point].
In the case of `CN1CCN(C2=C(NS(=O)(=O)c3cccs3)C(=O)c3ccccc3C2=O)CC1`, the Potency is reported as “inactive”.
In the case of `COC(=O)CSc1nnc(-c2ccccn2)n1Cc1ccco1`, the Potency is reported as “inactive”.
With `CC(NCC(O)COc1ccc(Br)cc1)c1ccccc1` (stereo unspecified) the Potency was “inactive”.
